Experiment in all cases: ELISA solution competition; antigen titrated against fixed antibody, free antibody caught on hIL-4R-hFc plate
On the technique in general: An ELISA detects its analyte on a solid surface through an enzyme-linked reagent.

Assay [1] concerns the target T1, VAB 6C10-14.
T1 construct: Apparently tested with mouse constant region (anti-mouse IgG capture/detection)

For assay [2], the target named is T2, VAB 3B4-10.
T2 construct: Apparently tested with mouse constant region (anti-mouse IgG capture/detection)

Assay [3] deals with T3, VAK12B11-9.
T3 construct: Apparently tested with mouse constant region (anti-mouse IgG capture/detection)

For assay [4], the target named is T4, VAK10G6-7.
T4 construct: Apparently tested with mouse constant region (anti-mouse IgG capture/detection)

Assay [5] addresses T5, VAB 16G1-1.
T5 construct: 403/405; 407/409 without saying which was assayed; Apparently tested with mouse constant region (anti-mouse IgG capture/detection)

For assay [6], the target named is T6, VAK7G8-5.
T6 construct: Apparently tested with mouse constant region (anti-mouse IgG capture/detection)

For assay [7], the target named is T7, VAK8G11-13.
T7 construct: Apparently tested with mouse constant region (anti-mouse IgG capture/detection)

In assay [8] the target is T8, VAB 1H1-2.
T8 construct: Apparently tested with mouse constant region (anti-mouse IgG capture/detection)

Assay [9] has as its target T9, VAB 10C1-5.
T9 construct: Apparently tested with mouse constant region (anti-mouse IgG capture/detection)

Assay [10] concerns the target T10, VAB 7B9-3.
T10 construct: Apparently tested with mouse constant region (anti-mouse IgG capture/detection)

For assay [11], the target named is T11, VAK5H4-4.
T11 construct: Apparently tested with mouse constant region (anti-mouse IgG capture/detection)

Assay [12] addresses T12, VAB 10G8-19.
T12 construct: Apparently tested with mouse constant region (anti-mouse IgG capture/detection)

Assay [13] has as its target T13, VAB 5C5-11.
T13 construct: Apparently tested with mouse constant region (anti-mouse IgG capture/detection)

For assay [14], the target named is T14, VAB 16F3-1.
T14 construct: Apparently tested with mouse constant region (anti-mouse IgG capture/detection)

The target of assay [15] is T15, VAB 15C8-17.
T15 construct: Apparently tested with mouse constant region (anti-mouse IgG capture/detection)

Assay [16] addresses T16, VAB 11G8-1.
T16 construct: Apparently tested with mouse constant region (anti-mouse IgG capture/detection)

Assay [17] addresses T17, VAB 8G10-1.
T17 construct: Apparently tested with mouse constant region (anti-mouse IgG capture/detection)

For assay [18], the target named is T18, VX 4E7-9.
T18 construct: 387/389; Apparently tested with mouse constant region (anti-mouse IgG capture/detection)

Assay [19] deals with T19, Control: a fully human anti-IL-4R antibody (U.S. Pat. No. 7,186,809; SEQ ID NOs:10 and 12).
T19 construct: Fully human antibody; also called control antibody; control anti-hIL-4R antibody

For assay [20], the target named is T20, VX 3F7-6.
T20 construct: 395/397; 399/401 without saying which was assayed; Apparently tested with mouse constant region (anti-mouse IgG capture/detection)

Assay [21] concerns the target T21, VAB 4D5-3.
T21 construct: Apparently tested with mouse constant region (anti-mouse IgG capture/detection)

The target in assay [22] is T22, VAK11D4-1.
T22 construct: Apparently tested with mouse constant region (anti-mouse IgG capture/detection)

Assay [23] has as its target T23, VAK10G12-5.
T23 construct: Apparently tested with mouse constant region (anti-mouse IgG capture/detection)

Assay [24] concerns the target T24, VAK9C6-11.
T24 construct: Apparently tested with mouse constant region (anti-mouse IgG capture/detection)

By IC50 is commonly meant the concentration at which inhibition is half-maximal. A high value points to weaker potency.

T20 sequence (VH, as listed by the source, chain 1 of 2): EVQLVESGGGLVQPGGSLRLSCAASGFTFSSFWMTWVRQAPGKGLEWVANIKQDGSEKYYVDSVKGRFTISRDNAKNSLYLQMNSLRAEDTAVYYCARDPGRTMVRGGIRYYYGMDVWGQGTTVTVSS
T20 sequence (VL, as listed by the source, chain 2 of 2): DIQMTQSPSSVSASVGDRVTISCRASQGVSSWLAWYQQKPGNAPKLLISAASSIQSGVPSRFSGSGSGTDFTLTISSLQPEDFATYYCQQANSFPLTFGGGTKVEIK
T1 sequence (VH, as listed by the source, chain 1 of 2): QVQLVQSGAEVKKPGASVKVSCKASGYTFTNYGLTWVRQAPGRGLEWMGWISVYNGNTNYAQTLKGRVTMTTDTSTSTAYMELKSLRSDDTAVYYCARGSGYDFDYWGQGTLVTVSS
T1 sequence (VL, as listed by the source, chain 2 of 2): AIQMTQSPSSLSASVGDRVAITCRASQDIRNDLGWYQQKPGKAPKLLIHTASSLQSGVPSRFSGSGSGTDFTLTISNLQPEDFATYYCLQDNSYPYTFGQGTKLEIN
T22 sequence (VH, as listed by the source, chain 1 of 2): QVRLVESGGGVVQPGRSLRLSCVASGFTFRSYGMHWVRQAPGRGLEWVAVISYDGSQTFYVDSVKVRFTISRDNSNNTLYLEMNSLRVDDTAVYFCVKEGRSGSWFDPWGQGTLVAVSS
T22 sequence (VL, as listed by the source, chain 2 of 2): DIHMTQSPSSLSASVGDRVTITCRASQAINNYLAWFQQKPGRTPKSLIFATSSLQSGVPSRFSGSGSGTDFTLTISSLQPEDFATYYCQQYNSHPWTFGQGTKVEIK
T14 sequence (VH, as listed by the source, chain 1 of 2): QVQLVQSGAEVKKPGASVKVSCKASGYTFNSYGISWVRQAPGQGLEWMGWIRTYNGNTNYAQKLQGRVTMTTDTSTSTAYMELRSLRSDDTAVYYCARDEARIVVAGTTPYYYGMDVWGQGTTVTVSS
T14 sequence (V domain, as listed by the source, chain 2 of 2): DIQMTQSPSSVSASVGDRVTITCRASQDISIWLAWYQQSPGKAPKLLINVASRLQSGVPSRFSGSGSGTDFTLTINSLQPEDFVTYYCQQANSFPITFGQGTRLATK
T16 sequence (VH, as listed by the source, chain 1 of 2): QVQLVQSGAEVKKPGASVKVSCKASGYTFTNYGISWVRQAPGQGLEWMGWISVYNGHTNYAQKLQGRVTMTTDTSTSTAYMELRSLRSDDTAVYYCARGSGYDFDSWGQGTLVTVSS
T16 sequence (VL, as listed by the source, chain 2 of 2): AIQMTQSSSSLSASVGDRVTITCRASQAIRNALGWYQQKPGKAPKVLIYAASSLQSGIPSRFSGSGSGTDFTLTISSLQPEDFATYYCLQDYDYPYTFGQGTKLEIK
T2 sequence (VH, as listed by the source, chain 1 of 2): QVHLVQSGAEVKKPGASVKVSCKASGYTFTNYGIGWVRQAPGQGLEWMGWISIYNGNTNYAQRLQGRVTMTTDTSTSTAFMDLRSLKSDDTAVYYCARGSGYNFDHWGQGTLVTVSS
T2 sequence (V domain, as listed by the source, chain 2 of 2): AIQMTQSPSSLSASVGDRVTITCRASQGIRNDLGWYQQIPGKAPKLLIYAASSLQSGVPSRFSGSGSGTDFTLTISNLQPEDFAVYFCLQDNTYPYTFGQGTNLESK
T23 sequence (VH, as listed by the source, chain 1 of 2): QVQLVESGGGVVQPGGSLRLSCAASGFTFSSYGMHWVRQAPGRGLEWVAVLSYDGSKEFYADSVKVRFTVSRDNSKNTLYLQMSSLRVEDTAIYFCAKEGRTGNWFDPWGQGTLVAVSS
T23 sequence (VL, as listed by the source, chain 2 of 2): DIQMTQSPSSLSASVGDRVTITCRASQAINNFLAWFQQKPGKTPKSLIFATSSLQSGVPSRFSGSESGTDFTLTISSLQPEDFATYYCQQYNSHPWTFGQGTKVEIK
T6 sequence (VH, as listed by the source, chain 1 of 2): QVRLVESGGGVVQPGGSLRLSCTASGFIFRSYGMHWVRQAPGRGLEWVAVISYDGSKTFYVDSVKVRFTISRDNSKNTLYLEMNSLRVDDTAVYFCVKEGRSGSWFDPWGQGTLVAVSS
T6 sequence (VL, as listed by the source, chain 2 of 2): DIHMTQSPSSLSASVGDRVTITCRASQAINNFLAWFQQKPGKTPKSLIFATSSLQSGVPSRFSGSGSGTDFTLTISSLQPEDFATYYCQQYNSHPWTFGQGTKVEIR
T15 sequence (VH, as listed by the source, chain 1 of 2): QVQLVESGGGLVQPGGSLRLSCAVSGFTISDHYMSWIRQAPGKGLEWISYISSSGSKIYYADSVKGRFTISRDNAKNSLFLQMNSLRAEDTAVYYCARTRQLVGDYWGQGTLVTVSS
T15 sequence (VL, as listed by the source, chain 2 of 2): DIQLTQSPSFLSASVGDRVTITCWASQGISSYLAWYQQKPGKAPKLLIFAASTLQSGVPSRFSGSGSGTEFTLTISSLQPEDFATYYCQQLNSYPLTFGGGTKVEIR
T21 sequence (VH, as listed by the source, chain 1 of 2): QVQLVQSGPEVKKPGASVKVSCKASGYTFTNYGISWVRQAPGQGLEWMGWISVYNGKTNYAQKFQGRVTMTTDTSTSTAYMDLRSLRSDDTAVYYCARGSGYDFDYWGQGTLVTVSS
T21 sequence (VL, as listed by the source, chain 2 of 2): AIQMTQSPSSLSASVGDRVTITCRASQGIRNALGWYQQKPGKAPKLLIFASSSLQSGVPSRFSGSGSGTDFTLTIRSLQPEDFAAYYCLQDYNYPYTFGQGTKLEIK
T4 sequence (VH, as listed by the source, chain 1 of 2): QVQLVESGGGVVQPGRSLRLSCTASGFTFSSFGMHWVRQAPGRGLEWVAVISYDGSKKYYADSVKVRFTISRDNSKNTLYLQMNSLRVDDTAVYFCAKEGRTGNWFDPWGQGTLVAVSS
T4 sequence (VL, as listed by the source, chain 2 of 2): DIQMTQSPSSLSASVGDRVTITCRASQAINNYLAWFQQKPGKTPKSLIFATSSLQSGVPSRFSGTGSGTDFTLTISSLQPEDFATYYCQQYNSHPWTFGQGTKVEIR
T8 sequence (VH, as listed by the source, chain 1 of 2): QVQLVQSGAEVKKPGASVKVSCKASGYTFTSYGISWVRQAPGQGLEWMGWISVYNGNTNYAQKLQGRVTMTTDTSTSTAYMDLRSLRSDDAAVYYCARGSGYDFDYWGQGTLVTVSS
T8 sequence (VL, as listed by the source, chain 2 of 2): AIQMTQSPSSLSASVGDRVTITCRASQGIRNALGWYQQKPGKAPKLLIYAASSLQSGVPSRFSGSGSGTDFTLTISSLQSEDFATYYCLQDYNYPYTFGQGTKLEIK
T10 sequence (VH, as listed by the source, chain 1 of 2): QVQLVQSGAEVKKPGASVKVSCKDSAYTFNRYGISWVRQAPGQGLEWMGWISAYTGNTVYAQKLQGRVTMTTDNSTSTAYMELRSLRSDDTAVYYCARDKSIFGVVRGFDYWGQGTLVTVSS
T10 sequence (VL, as listed by the source, chain 2 of 2): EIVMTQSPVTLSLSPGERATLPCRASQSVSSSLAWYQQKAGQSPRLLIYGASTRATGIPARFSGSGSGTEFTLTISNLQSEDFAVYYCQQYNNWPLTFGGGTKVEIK
T7 sequence (VH, as listed by the source, chain 1 of 2): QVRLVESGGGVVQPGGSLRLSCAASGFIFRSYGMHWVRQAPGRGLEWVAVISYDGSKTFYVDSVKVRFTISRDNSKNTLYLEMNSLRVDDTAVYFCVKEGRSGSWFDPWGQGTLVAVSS
T7 sequence (VL, as listed by the source, chain 2 of 2): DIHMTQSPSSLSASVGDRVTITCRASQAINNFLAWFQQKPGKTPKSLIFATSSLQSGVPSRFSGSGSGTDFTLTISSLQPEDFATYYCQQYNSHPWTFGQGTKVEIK
T24 sequence (VH, as listed by the source, chain 1 of 2): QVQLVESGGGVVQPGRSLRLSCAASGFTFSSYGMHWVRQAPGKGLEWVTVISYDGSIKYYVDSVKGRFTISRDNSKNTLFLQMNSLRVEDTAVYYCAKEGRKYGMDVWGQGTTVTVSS
T24 sequence (VL, as listed by the source, chain 2 of 2): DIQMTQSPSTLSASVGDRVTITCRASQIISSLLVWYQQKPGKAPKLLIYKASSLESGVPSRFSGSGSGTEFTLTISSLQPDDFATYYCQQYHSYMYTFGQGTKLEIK
T5 sequence (VH, as listed by the source, chain 1 of 2): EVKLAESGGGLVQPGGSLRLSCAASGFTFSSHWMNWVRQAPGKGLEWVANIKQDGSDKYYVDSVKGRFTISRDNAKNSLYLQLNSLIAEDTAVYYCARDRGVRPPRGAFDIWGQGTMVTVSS
T5 sequence (VL, as listed by the source, chain 2 of 2): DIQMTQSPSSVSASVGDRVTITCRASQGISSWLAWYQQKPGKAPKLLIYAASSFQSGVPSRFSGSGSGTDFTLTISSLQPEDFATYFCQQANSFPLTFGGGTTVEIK
T9 sequence (VH, as listed by the source, chain 1 of 2): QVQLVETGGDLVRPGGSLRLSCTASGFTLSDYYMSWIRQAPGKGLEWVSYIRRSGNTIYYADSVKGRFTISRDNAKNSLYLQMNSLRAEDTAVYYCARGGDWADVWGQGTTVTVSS
T9 sequence (VL, as listed by the source, chain 2 of 2): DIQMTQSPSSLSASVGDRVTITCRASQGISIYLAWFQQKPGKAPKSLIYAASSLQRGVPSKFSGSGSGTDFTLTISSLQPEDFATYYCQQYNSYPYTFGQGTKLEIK
T18 sequence (VH, as listed by the source, chain 1 of 2): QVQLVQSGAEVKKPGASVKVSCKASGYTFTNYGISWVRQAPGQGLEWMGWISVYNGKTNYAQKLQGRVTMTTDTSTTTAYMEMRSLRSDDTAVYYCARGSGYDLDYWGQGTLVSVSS
T18 sequence (VL, as listed by the source, chain 2 of 2): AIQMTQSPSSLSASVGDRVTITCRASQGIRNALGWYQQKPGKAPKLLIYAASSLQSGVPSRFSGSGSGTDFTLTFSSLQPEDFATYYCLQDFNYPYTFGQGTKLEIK

B1: monomeric hIL-4R (R&D Systems) (receptor)
chain: not shown
notes: Bought (R&D Systems); also called hIL-4R monomer
For the molecule B1, the concentration for half-maximal inhibition (IC50) in assay [1] was 0.489 nM; in assay [2] it was 0.336 nM; in assay [3], 0.325 nM; in [4], 0.165 nM; in assay [5] it was 0.595 nM; in [6] it was 0.092 nM. Also, the IC50 in assay [7] came to 0.103 nM; in [8], 0.779 nM; in assay [9], 12.9 nM; in assay [10] it was 2.98 nM; in assay [11], 0.13 nM; in assay [12], 0.089 nM. Besides, the IC50 is 5.22 nM in assay [13]; 0.007 nM in assay [14]; 0.418 nM in assay [15]; 0.473 nM in assay [16]; 0.517 nM in assay [17]; 0.175 nM in assay [18]. The half-inhibitory concentration (IC50) in [19] came to 3.5 nM; in assay [20], 2.9 nM; in assay [21], 0.285 nM; in assay [22], 0.109 nM; in assay [23] it was 0.169 nM; in [24] it was 1.4 nM.

Source of the values: patent publication US20080160035A1 (Regeneron, published 2008).
